The values below come from the RNAGym collection of RNA variant scans (doi:10.7554/elife.90254).

To fix the notation:
B1: LINE1-full (parent)
chain: UACGUAGGUGGUUUUCCCCUGAUAGUGCUAAGGGGGCCUGGAAGUUUGGACUGGGCAGAGCUCAACACAGCGUGGCAAAGUGGCUGUGGCUAGACUGCCUCUCUGGAUUCCUCGUCACUCAGCAGGGCAUCUCUGAGAGAAAUGCC

Read counts are not given, so values of variants with three or more changes are uncertain.

In the data set the parent is B1. As to the kind of experiment: self-cleavage, relative activity (ratio to wild type); higher = more cleavage; in vitro, sequencing; the parent is a self-cleaving ribozyme.
For A67G C71U A107G, the self-cleavage was 0.1.

On to A67G A69G A77C U112C C116U, for which the self-cleavage is 0.

For the variant A65G U132A U143C, the self-cleavage worked out at 0.09.

For C66U U132C U134A, the self-cleavage was 0.02.

On to A65U A92G U115C, for which the self-cleavage was 0.13.

With A64U U87C A129G A142G, the self-cleavage is 0.

In the case of A65G A121U A138G, the self-cleavage turned out to be 0.

For the variant A65G U73C A79U C120A, the self-cleavage worked out at 0.04.

For the variant A67C A136U A142G, the self-cleavage is 0.33.

For the variant A65G U85C G88A A136G, the self-cleavage turned out to be 0.05.

For A65C A69U G82U U119A, the self-cleavage came to 0.03.

Regarding A65G G80A U143C, the self-cleavage was found to be 0.02.

Take C66U U73C U112C: the self-cleavage is 0.11.

Regarding A65U A79G A142G, the self-cleavage was found to be 0.06.

With A64U U73C G80A, the self-cleavage is 0.84.

Regarding A65G A69G C101U C146U, the self-cleavage amounted to 0.

On to A65U C101A A141G, for which the self-cleavage amounted to 0.32.

Take A65G A78U G122U: the self-cleavage is 0.03.

For the variant A65G A77G U109A A117U, the self-cleavage was determined as 0.06.

Consider A65U A92U U115C A124U, for which the self-cleavage came out at 0.15.

A64U A67U U96G: the self-cleavage stood at 0.06.

In the case of A65U A79G U108G U109C, the self-cleavage was 0.33.

For A64U A77G A94G, the self-cleavage is 0.28.

On to A65C U115A U130A, for which the self-cleavage is 0.03.

For A64U U112C G114U, the self-cleavage was determined as 0.51.

For the variant A65G A78U U115A A124U, the self-cleavage is 0.03.

As for A65U U73A A77U U115C A117U C128U, the self-cleavage was found to be 0.15.

On to A65G A67G U115A, for which the self-cleavage came to 0.

Consider A65U U81C A117G, for which the self-cleavage worked out at 0.38.

As to A64U U87G A92G U112C A136G, the self-cleavage was found to be 0.

With A67G A77G U100A A140G, the self-cleavage came out at 0.46.

In the case of A64U G80U U102C U109G, the self-cleavage is 0.48.

As for A65U A121G U143C, the self-cleavage was 0.07.

As for A65U U87C U119A, the self-cleavage worked out at 0.02.

Turning to A67G C76U U85A, the self-cleavage was determined as 0.04.

A67G A129G A136G: the self-cleavage is 0.49.

On to A65G U102C C120U U134A, for which the self-cleavage amounted to 0.02.

With A67C A69G U130C A136G, the self-cleavage is 0.

A65U U73A U104G: the self-cleavage was determined as 0.13.

As to C66A A77U A79U, the self-cleavage is 0.02.

For A65G U73C U104C A121U G125U, the self-cleavage was 0.

As for A64U A77G C113A A129G, the self-cleavage is 0.68.

Consider A67G A69U U91C A92U, for which the self-cleavage amounted to 0.

Turning to A65G A121G A142G, the self-cleavage came out at 0.18.

With A65G C71U U81A C103U A107U A117U A124U U132C, the self-cleavage is 0.01.

As for C66U U81A C84U, the self-cleavage came to 0.04.

For A65U U73C G89A, the self-cleavage came out at 0.

For the variant A65G A77U U115C, the self-cleavage was 0.05.

For the variant A67G C71G U102C, the self-cleavage was 0.

Turning to A67G G72U C146U, the self-cleavage came to 0.49.

Consider A65G A69G A124G C145G, for which the self-cleavage stood at 0.66.

Take A65G G72A A78G A121G C131U: the self-cleavage was 0.04.

Take C66A U85C A117G A124U: the self-cleavage turned out to be 0.

In the case of A64U U109A U115C A117G, the self-cleavage was determined as 0.42.

Regarding A67G A78U U96A, the self-cleavage was 0.02.

As to A65G U134C G137A A141G, the self-cleavage was determined as 0.

Consider A65G A67G A79G U143A, for which the self-cleavage turned out to be 0.37.

With A65U G80U A124U, the self-cleavage was 0.27.

Regarding A67C C128G A142G, the self-cleavage was 0.07.

For the variant A67G A78G C98A U109C, the self-cleavage came to 0.33.

On to A67G A79G G93U U104A, for which the self-cleavage was 0.02.

Regarding A65G U81A C110A, the self-cleavage was determined as 0.05.

Take A65G U85C A142G: the self-cleavage was found to be 0.

For A64U A69G U102C, the self-cleavage worked out at 0.09.

Consider A65G A67G A140G, for which the self-cleavage worked out at 0.

Regarding A65C U87A A142G, the self-cleavage was determined as 0.08.

A64U A117G G125A: the self-cleavage came to 0.6.

Turning to A64U A78G U102C A121G U134C, the self-cleavage worked out at 0.57.

For A64U U91A G144A, the self-cleavage is 0.12.

A64U A92G U112G: the self-cleavage came out at 0.6.

Consider A65G G80A U91C, for which the self-cleavage came to 0.02.

In the case of A65U C76U U115C C145G, the self-cleavage came out at 0.28.

Turning to A65U A124U U134A, the self-cleavage came to 0.13.

On to A65G U73A U134C, for which the self-cleavage came to 0.02.

Turning to C66U A92G C111U, the self-cleavage was found to be 0.

For the variant A65G A78G A129G, the self-cleavage amounted to 0.

Turning to A65U A67C U85C, the self-cleavage is 0.09.

Regarding A65G U87A A142G, the self-cleavage was found to be 0.05.

A67G G83A A136U: the self-cleavage is 0.25.

Take A64U U132C A142G: the self-cleavage stood at 0.77.

Take A65G U112C C113A: the self-cleavage worked out at 0.04.

For the variant A65U C123U A129G, the self-cleavage was 0.12.

Turning to A64U U96A A138G, the self-cleavage is 0.02.

As for A65U U73C A79G C84A, the self-cleavage was 0.03.

For the variant A65G A78G A138U A140U, the self-cleavage worked out at 0.02.

As to A65U A77G U91C, the self-cleavage worked out at 0.14.

For A65U A78G U109A A138U, the self-cleavage turned out to be 0.

Take A64U U81C A92G: the self-cleavage was determined as 0.21.

Regarding A67G A124G A141G, the self-cleavage was found to be 0.31.

Turning to A67G A78G U134A, the self-cleavage came to 0.

Consider A65G A67G G89A, for which the self-cleavage is 0.07.

On to A67G A77G U119A A138G, for which the self-cleavage was determined as 0.95.

On to A65G A79G C133A, for which the self-cleavage was 0.12.

Regarding A65G G125A A138G, the self-cleavage stood at 0.

As to A64U U108A U143C, the self-cleavage was 0.58.

On to A67C A69U A92G A140C, for which the self-cleavage was 0.

As for A64U A77U A94G U104G, the self-cleavage stood at 0.17.

In the case of A65G U85C A138U, the self-cleavage is 0.18.

In the case of A67G G70A C110G U112C A117G A142G, the self-cleavage is 0.

With A65G U102C U109C A142G, the self-cleavage stood at 0.5.

As for C66U U81C U96C, the self-cleavage was determined as 0.05.

Take A64U U109A A142G: the self-cleavage was 0.34.

Take A64U U85C A138U: the self-cleavage is 0.07.

Turning to A67G A140G U143C, the self-cleavage was determined as 0.44.

Turning to A65G A92G U115A A117U U119C, the self-cleavage is 0.

A65G U73C A92U: the self-cleavage came out at 0.

On to A67G A141G U143C, for which the self-cleavage was 0.14.

As for A65U U73A U85A A141G, the self-cleavage came out at 0.04.

Consider A64U U102C A140U, for which the self-cleavage is 0.33.

Turning to A65G C71U A142G, the self-cleavage was 0.

As for A65G U73C A124U, the self-cleavage came to 0.

A65U U81C A129U: the self-cleavage amounted to 0.3.

Take A65G A92G C113U: the self-cleavage is 0.02.

In the case of A65U U109A U143C, the self-cleavage turned out to be 0.17.

For the variant C66U C103A A121G A142U, the self-cleavage was 0.03.

As to A65G U73C U130A, the self-cleavage was 0.

Consider C66U A69G A124G, for which the self-cleavage stood at 0.

On to A64U A124G C146U, for which the self-cleavage was 0.25.

On to A67C U112C A121U, for which the self-cleavage was 0.03.

In the case of A67G C76U U134A, the self-cleavage worked out at 0.27.

As for A67G C99U U102A A121G, the self-cleavage turned out to be 0.16.

For the variant A64U U109C A117U, the self-cleavage amounted to 1.

For the variant A67C A77U U102C U130C, the self-cleavage worked out at 0.

Consider A65G U85A A136G A141G, for which the self-cleavage worked out at 0.17.

Take A65G A69U A141G: the self-cleavage stood at 0.02.

On to A67G A107G U112A, for which the self-cleavage stood at 0.45.

As for A65G A77G G126A, the self-cleavage worked out at 0.1.

Consider A64U U96A C118A U132C, for which the self-cleavage was found to be 0.01.

Take A65G A67G U132C A136G A141G: the self-cleavage was found to be 0.

For A64U G72A U96A A117G U132C, the self-cleavage stood at 0.

Take A64U U130C U134A: the self-cleavage was determined as 0.22.

For the variant A65G U85C C95A A107G A138G, the self-cleavage stood at 0.

On to A67G C111U U134C, for which the self-cleavage amounted to 0.43.

For A65G U102C G114A, the self-cleavage amounted to 0.02.

Regarding A65G U85A A129U, the self-cleavage was 0.03.

In the case of A64U C76U U100C, the self-cleavage was 1.25.

With A65G C101A G114A, the self-cleavage came to 0.03.

Consider A65G U115A U134G, for which the self-cleavage was determined as 0.03.

Consider A64U U112C U115C A117C, for which the self-cleavage is 1.01.

Turning to A65U U87C U104A C123A, the self-cleavage was 0.04.

With A65G U81C A138G, the self-cleavage came out at 0.

Turning to A67G G83A A107U, the self-cleavage came to 0.37.

Regarding A64U U102C A141G, the self-cleavage was 0.44.

Take A65U A69U U73C A79G U104A: the self-cleavage was found to be 0.05.

As for A67G C68U U73A A77G U81C, the self-cleavage worked out at 0.14.

Take A64U A69G U132C: the self-cleavage is 0.18.

A64U U81C A140G: the self-cleavage is 0.64.

As to A65U C68U A138G, the self-cleavage was 0.07.

On to A64U U108C A136G, for which the self-cleavage is 0.83.

A65G A121G A136U: the self-cleavage stood at 0.

Turning to A67G A129U U143C, the self-cleavage is 0.59.

As for A64U A69G U130C, the self-cleavage was 0.45.

Turning to A65G U112C U134A, the self-cleavage came to 0.07.

In the case of A65G A78U U115A A136U A142G, the self-cleavage stood at 0.08.

Consider A65U U91C A129U, for which the self-cleavage was 0.07.

In the case of C66U U102C U115C A142G, the self-cleavage came to 0.07.

Turning to A65U A67U U104C, the self-cleavage is 0.02.

On to A64U A77G U91C, for which the self-cleavage was determined as 0.15.

Take A64U U87A U104C: the self-cleavage stood at 0.04.

With A64U C90G A136U, the self-cleavage stood at 0.16.

For the variant A65G A79G U134A, the self-cleavage amounted to 0.1.

On to A67G G75U U85G A92G A141G, for which the self-cleavage came out at 0.

Consider A65G A69U U73C, for which the self-cleavage was determined as 0.

In the case of A65G U109A A136G, the self-cleavage was 0.08.

Turning to A65G A77U U108C, the self-cleavage came out at 0.03.

Take A65G U130C U143A: the self-cleavage turned out to be 0.

A67C A78G U109C: the self-cleavage came out at 0.
